Sequences with one replicate were seen in a single cluster, so their values are uncertain.

The series concerns ATP. In words: switch fluorescence ratio, 500 uM ATP over buffer (Cy3 cluster intensity, sum of 5 cycles each) (fold (ratio)); higher = stronger signal-on switching upon ATP binding; sequences stand for … in TCGTCGGCAGCGTCAGATGTGTATAAGAGACAGTTTTTTTTTTTTTTTTTTTTTTTTT…TC. Particulars: aptamer strand: ATP DNA aptamer (quencher-CACCTGGGGGAGTATTGCGGAGGAAGG + anchor), 100 nM annealed; ATP concentration: 500 uM; one replicate. In short, it runs like this: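 Clusters with intensities outside 100-1000 RFU were excluded. The remaining Cy3-labelled switching-strand clusters on a modified Illumina MiSeq flow-cell had been annealed to 100 nM quencher-labelled ATP aptamer and imaged in selection buffer, then after 15 min with 500 uM ATP at 22 °C, for five cycles separated by NaOH stripping and re-annealing. The fluorescence ratio, averaged per switch-domain sequence, is each cluster's summed target-cycle Cy3 intensity over its summed buffer-cycle Cy3 intensity.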
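Also: ATP exposure 15 min at 22 °C before imaging.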

Regarding GCGCGGTGGT, the switch fluorescence ratio was found to be 1.06.
GATCAATAGG: the switch fluorescence ratio stood at 0.948.
As for GATAGGTTGC, the figure is 0.976; as for AGGATCATCT, 0.968; as for CTTTAAAGAT, 1.07.
As to TAAACGTCT, the switch fluorescence ratio stood at 1.03.
In the case of CTGAAGGGTA, the switch fluorescence ratio came out at 1.03.
Take TTGTAAGAGG: the switch fluorescence ratio worked out at 1.02.
As for AGTGGCAGCT, the switch fluorescence ratio was 0.965.
CTTCACCTTA: the switch fluorescence ratio amounted to 1.07.
Consider CGAACCAAGC, for which the switch fluorescence ratio worked out at 1.51.
On to GCGGGATAGG, for which the switch fluorescence ratio amounted to 1.04.
As to AATCTACCAT, the switch fluorescence ratio turned out to be 1.02.
Take CGGTGTCCAT: the switch fluorescence ratio is 0.94.
TCACTTTCCG: the switch fluorescence ratio was determined as 1.06.
As for TTTATCAGC, the figure is 1.06.
Take AGACGGTAAA: the switch fluorescence ratio was 1.15.
As for TCGTGGATG, the switch fluorescence ratio stood at 1.
TTCAGGGCGG: the switch fluorescence ratio was 0.973.
For TAAGTAGTGT, the switch fluorescence ratio came to 0.956.
As to ACTAGTCGAT, the switch fluorescence ratio was found to be 0.972.
Turning to ACGTATCCC, the switch fluorescence ratio is 1.15.
As to GCCCCGTAAT, the switch fluorescence ratio stood at 1.85.
The same measure for ACGAAACAAT: 1.18; for AACAAGGCA: 1.01; for AACGACGGAC: 1.62.
As for CCCATCTAGT, the figure is 0.975.
For the sequence CACTTTAGAT, the switch fluorescence ratio stood at 1.02.
In the case of TTGTTGCTCT, the switch fluorescence ratio came to 0.982.
The same measure for TACCGCGCGG: 1.03.
The same measure for ACATCGTAA: 0.995; for TTGGGTCTGT: 0.975.
As to GATGTTTCCG, the switch fluorescence ratio was 1.01.
Take TAAGATCCGG: the switch fluorescence ratio was 1.01.
On to CAAAAGGCTC, for which the switch fluorescence ratio is 1.21.
For the sequence ACCAGCGGCC, the switch fluorescence ratio came out at 1.04.
As to CCCCGGTGTG, the switch fluorescence ratio was 3.37.
As for GCGATTGGTG, the switch fluorescence ratio was determined as 1.02.
The same measure for AAAGTATT: 1.04; for ATTGGGGTGA: 0.999.
Consider GGCCCATATA, for which the switch fluorescence ratio is 1.01.
CACATGCCGT: the switch fluorescence ratio is 0.936.
For the sequence AGCCTCGGGA, the switch fluorescence ratio worked out at 1.04.
The same measure for CGCTCATTGG: 1.06; for TGGCTGTTCT: 1.01; for GCAATGTAGC: 1.4.
Consider GGAGGCCGA, for which the switch fluorescence ratio was 1.06.
As for GAATCCCGGT, the figure is 1.03.
With TTTGGGTTG, the switch fluorescence ratio stood at 0.973.
CGAGGGGTC: the switch fluorescence ratio turned out to be 1.04.
As for TGTATGGCGA, the switch fluorescence ratio is 0.973.
For GCAATTCTCA, the switch fluorescence ratio was found to be 5.25.
The same measure for GCGTCCGGTG: 1.05.
Take GACGAAGT: the switch fluorescence ratio stood at 1.03.
In the case of GCGCTTTCGT, the switch fluorescence ratio was 0.951.
For the sequence TCTCGAAATG, the switch fluorescence ratio was 1.08.
Consider ACAAGGTGTA, for which the switch fluorescence ratio amounted to 1.06.
As for AAAATCCGT, the switch fluorescence ratio was found to be 1.04.
For the sequence TTGTTTAGAG, the switch fluorescence ratio stood at 1.04.
Regarding AGTACGGCCG, the switch fluorescence ratio was found to be 0.942.
Turning to TTACTTGTGT, the switch fluorescence ratio was determined as 0.931.
In the case of TAAATTGTTG, the switch fluorescence ratio is 0.992.
Consider AAAAATCTAC, for which the switch fluorescence ratio came to 1.06.
In the case of CGGATAAGAT, the switch fluorescence ratio was found to be 0.986.
As to AATCAAATGC, the switch fluorescence ratio came to 1.01.
Turning to TGACCAGTCG, the switch fluorescence ratio worked out at 0.999.
Turning to TGAAGAAAAG, the switch fluorescence ratio turned out to be 1.04.
As for TAGCAACAA, the switch fluorescence ratio is 1.39.
With CGATGCCTTG, the switch fluorescence ratio was determined as 0.972.
In the case of TTACAGTAAC, the switch fluorescence ratio is 1.1.
As to CGCGGACAGC, the switch fluorescence ratio was 1.03.
Regarding ATATGTTGAT, the switch fluorescence ratio came out at 1.01.
Turning to GGTGTTAGAA, the switch fluorescence ratio worked out at 0.981.
Turning to CTATACTCAT, the switch fluorescence ratio was 1.02.
As for AAAATGCCCG, the figure is 1.03.
Turning to ATGGTTCGG, the switch fluorescence ratio worked out at 0.964.
AAAACACTTT: the switch fluorescence ratio is 1.03.
The same measure for TATAGAGCGT: 1.03.
Take ACTACCGCTT: the switch fluorescence ratio stood at 1.32.
As for GATTGGGTCT, the switch fluorescence ratio worked out at 0.971.
For the sequence AGATAGATGC, the switch fluorescence ratio turned out to be 1.05.
Take AGTAAACCGC: the switch fluorescence ratio is 1.26.
As for TTTGAAAAAA, the switch fluorescence ratio was found to be 1.02.
Regarding GCAACGTTT, the switch fluorescence ratio was 1.03.
As for GGAGTCAACG, the figure is 0.978; as for TGGGACTGTG, 1.04; as for TCAAACTAGT, 1.04.
As for GGAGCTGATG, the figure is 1.06; as for CTTGGATCT, 0.994.
The same measure for CTGCTCGT: 1.17; for TCCACGTTG: 0.99; for GATGTGATCA: 1.04.
With GGTAACGGAA, the switch fluorescence ratio stood at 1.
Take GCCGACACGC: the switch fluorescence ratio was determined as 1.07.
As for GCTTCCGGCT, the figure is 1.07; as for GACTATAGAC, 1.1.
For GAAGGGGAGA, the switch fluorescence ratio is 0.985.
Consider CAGAATTAGC, for which the switch fluorescence ratio came out at 0.963.
As for CGAGTTGGA, the switch fluorescence ratio stood at 1.01.
As for GGTATCCGCT, the figure is 0.992; as for GATTCGGTAA, 1.02.
As for ATAAGAACAC, the figure is 1.44; as for TAGCTGTGCG, 0.978; as for CTGGCCGTGG, 0.985.
For the sequence GATGCCAGA, the switch fluorescence ratio came to 1.04.
As for CTCTGTCTCT, the figure is 1.02; as for CCTTGAAAGA, 1; as for TTCTGTGCA, 1.01.
CGCGAAGGTG: the switch fluorescence ratio came out at 1.49.
GGAAGCTCTG: the switch fluorescence ratio is 0.994.
Regarding TCTAGGGGTC, the switch fluorescence ratio was 0.958.
Consider GATCCTGGTA, for which the switch fluorescence ratio was found to be 1.01.
Regarding TGGTGTAATA, the switch fluorescence ratio was 1.01.
GGAGTGCACA: the switch fluorescence ratio worked out at 0.96.
For GATAGAAATC, the switch fluorescence ratio stood at 0.986.
For the sequence TCGGTCGCGA, the switch fluorescence ratio is 0.986.
As for AAGCATTCAT, the figure is 1.01; as for GGAAACTGTG, 0.968; as for TTATCGGAAG, 0.912.
The same measure for TGTTCGGGGG: 1; for TTATTACCAT: 1.03.

Values taken from the supplement of paper PMC10126150.
